PubChem BioAssay AID686979 (National Center for Advancing Translational Sciences (NCATS), 2013)
Screen size: about 420,000 compounds; about 50,000 (12%) were called active. This list was built around the results that the source calls inconclusive (neither active nor inactive); the mix of calls is not that of the screen. Calls follow the shape of the dose curve; as a rule, active = well fitted inhibition curve with a large enough effect; inconclusive = small, poorly fitted or top-dose-only effect; inactive = flat fitted curve, though single readings scatter. No potency is given beside an inconclusive call; the fits are too rough.

test: qHTS for Inhibitors of human tyrosyl-DNA phosphodiesterase 1 (TDP1): qHTS in cells in presence of CPT; details: chicken DT40 Tdp1-/-;hTDP1 cells + 20 nM CPT, ATP luminescence, 48 h; activity change, negative = growth inhibition: at 46.2 µM (top of the series); also: nearly all actives have a fitted effect of over 55% in size
Summary of the method: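 Chicken DT40 Tdp1-/- cells stably complemented with human TDP1 were seeded at 400 cells/well in medium containing 20 nM camptothecin, exposed to pin-transferred compounds, and grown at 37 °C for at least 48 hr. Viability was read as ATP luminescence.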
% is scaled to controls: 0 for no effect and ±100 for the full control effect; potency is read from the fitted curve at half-maximal effect; tags tell the direction and shape of the fitted curve.

**Q.** With COc1ccc2[nH]c(=O)c(CN(C(=O)C(C)C)c3ccccc3OC)cc2c1 as the compound, how does the Potency read?
**A.** inconclusive [inhibitor, partial curve]

**Q.** With CC(=O)Nc1cccc(S(=O)(=O)N2CCCCCC2)c1 as the compound, how does the Potency read?
**A.** inactive

**Q.** For O=C(Nc1cccc2cccnc12)c1ccc(Br)o1, which Potency is on record?
**A.** inactive

**Q.** With Cc1[nH]c2ccccc2c1C(=O)CSc1ccccn1 as the compound, how does the Potency read?
**A.** inactive

**Q.** With CC(C)c1ccc(NC(=O)CSc2ncccc2C(=O)Oc2cccc([N+](=O)[O-])c2)cc1 as the compound, how does the Potency read?
**A.** inconclusive [inhibitor, single point]

**Q.** With COc1ccc(-c2nnc(N3CCCCC3)c3ccccc23)cc1 as the compound, how does the Potency read?
**A.** active: 23.1 µM

**Q.** With CC(=O)C1(C)C(=O)N(c2ccc(F)cc2)C(=O)N1c1ccc(F)cc1 (stereo not given) as the compound, how does the Potency read?
**A.** inactive

**Q.** With O=C(Nc1ccc(-c2cn3ccsc3n2)cc1)C1CCCC1 as the compound, how does the Potency read?
**A.** active: 14.6 µM

**Q.** With Cc1c(C(=O)NCCc2ccncc2)cnn1-c1nccc(-c2ccccc2C(F)(F)F)n1 as the compound, how does the Potency read?
**A.** inconclusive [inhibitor, full curve, poor fit]

**Q.** With COc1cc(O)cc2occ(-c3ccc(O)cc3)c(=O)c12 as the compound, how does the Potency read?
**A.** inactive

**Q.** For Cc1ccc(-c2nnc(Nc3ccc(Cl)c(Cl)c3)c3ccccc23)cc1S(=O)(=O)NCCO, which Potency is on record?
**A.** active: 18.4 µM

**Q.** For COc1ccc(CC(=O)Nc2cc(S(=O)(=O)N3CCCCC3)ccc2C)cc1, which Potency is on record?
**A.** inconclusive [inhibitor, partial curve, poor fit]

**Q.** Which Potency does the source give for CSCCC(c1nc2ccccc2[nH]1)n1c(=O)c(-c2cc3ccccc3[nH]2)nc2ccccc21 (stereo not given) here?
**A.** inconclusive [inhibitor, single point]

**Q.** For CCN(CC)S(=O)(=O)c1cccc(-c2n[nH]c(=S)n2/N=C/c2ccc(C(=O)OC)cc2)c1, which Potency is on record?
**A.** inactive

**Q.** With Cc1cc(NS(=O)(=O)c2ccc(NC(=O)c3cc(-c4cccnc4)nc4ccc(Cl)cc34)cc2)no1 as the compound, how does the Potency read?
**A.** inactive

**Q.** With COc1ccc(C(=O)COC(=O)c2ccccn2)cc1OC as the compound, how does the Potency read?
**A.** inactive

**Q.** With Cc1ccc(/C=N/NC(=O)C2=NNC(c3ccccc3)(c3ccccc3)C2)c(O)c1 as the compound, how does the Potency read?
**A.** active: 4.61 µM

**Q.** With COc1ccc(/C=C/C(=O)NC2CCCCCCC2)cc1S(=O)(=O)N1CCOCC1 as the compound, how does the Potency read?
**A.** active: 20.6 µM

**Q.** For N#Cc1c2c(c(Nc3ccccc3)n3c1nc1ccccc13)CCC2, which Potency is on record?
**A.** inconclusive [inhibitor, partial curve, poor fit]

**Q.** Which Potency does the source give for Cc1cc(C)n(-c2nc3ccccc3c(=O)n2OCC#N)n1 here?
**A.** active: 0.651 µM

**Q.** With COC(=O)CCC(=O)OC1(C)C(=O)C2=CN(CCCOC(C)C)C(c3ccc(OC)cc3)=CC2=C(Br)C1=O (stereo not given) as the compound, how does the Potency read?
**A.** active: 18.4 µM

**Q.** With CC1CN(C)C(C)CC1OC(=O)C(c1ccccc1)c1ccccc1 (stereo not given) as the compound, how does the Potency read?
**A.** inconclusive [inhibitor, single point]

**Q.** Which activity change, negative = growth inhibition does the source give for CC(C)CNC(=O)C(=O)N/N=C/c1cccs1 here?
**A.** inconclusive: -24.8% [inhibitor]

**Q.** With COc1ccc(OC)c(/C=C/C(=O)OCC(=O)NCc2cccs2)c1 as the compound, how does the Potency read?
**A.** inactive

**Q.** Which Potency does the source give for CC(=O)c1sc(=S)n(-c2ccc(Cl)cc2)c1C here?
**A.** active: 18.4 µM

**Q.** With Cc1ccc(NC(=O)/C(=C/c2cccc([N+](=O)[O-])c2)NC(=O)C2CCCCC2)c(C)c1 as the compound, how does the Potency read?
**A.** inconclusive [inhibitor, single point]

**Q.** Which Potency does the source give for COc1ccccc1CNC(=O)COC(=O)c1cccnc1SCC(=O)NCc1ccccc1OC here?
**A.** inconclusive [inhibitor, single point]

**Q.** Which Potency does the source give for Cc1cc(C)nc(N/N=C/c2cn[nH]c2-c2ccc(F)cc2)n1 here?
**A.** inactive

**Q.** For Cc1ccc(NC(=O)C2CCCN2S(=O)(=O)c2cccc3nsnc23)cc1Cl (stereo not given), which Potency is on record?
**A.** inconclusive [inhibitor, single point]

**Q.** Which Potency does the source give for Cc1cc(C)c(S(=O)(=O)N2CCN(CCO)CC2)c(C)c1 here?
**A.** inactive

**Q.** For CS(=O)(=O)c1ccc(Nc2nc(C(N)COCc3ccccc3)cs2)cc1 (stereo not given), which Potency is on record?
**A.** active: 20.6 µM

**Q.** Which Potency does the source give for COc1ccc(CNC(=O)c2ccc3c(c2)CCN3S(=O)(=O)c2ccc(C)cc2)cc1 here?
**A.** active: 10.3 µM

**Q.** For CN(Cc1ccccc1)C(=O)CCn1c(=O)c2cccn2c2cccnc21, which Potency is on record?
**A.** inactive

**Q.** For CCN(CC)C(=O)c1cnn(-c2ccccc2)c1NC(=O)c1cccs1, which Potency is on record?
**A.** inactive

**Q.** Which Potency does the source give for Cc1cnc(NC(=O)c2cccc(S(=O)(=O)N3CC(C)OC(C)C3)c2)s1 (stereo not given) here?
**A.** inconclusive [inhibitor, single point]

**Q.** For C[C@H](CO)N1C[C@H](C)[C@@H](CN(C)C)Oc2c(NC(=O)CCC(F)(F)F)cccc2C1=O, which Potency is on record?
**A.** inactive

**Q.** For Cc1c(C(=O)Nc2ccc(C(C)C)cc2)sc2nc[nH]c(=O)c12, which Potency is on record?
**A.** active: 20.6 µM

**Q.** For N#Cc1cccc(NC(=O)N2CC3(CCN(C(=O)c4cc(C(F)(F)F)cc(C(F)(F)F)c4)CC3)C2)c1, which Potency is on record?
**A.** inactive

**Q.** With Cc1ccc(SCC(=O)N=C2NC(=O)CS2)cc1 as the compound, how does the Potency read?
**A.** inactive

**Q.** With c1ccc2[nH]c(NC3=NCCC3)nc2c1 as the compound, how does the Potency read?
**A.** inconclusive [inhibitor, single point]

**Q.** For CCc1ccc(NC(=O)CSc2nc3ccccc3c(=O)n2CCN2CCOCC2)cc1, which Potency is on record?
**A.** inconclusive [inhibitor, single point]

**Q.** For COc1ccc(C)cc1NC(=O)CSc1ccc(-c2ccccn2)nn1, which Potency is on record?
**A.** inconclusive [inhibitor, single point]

**Q.** For CC(NC(=O)c1cc(COc2ccc(-n3cncn3)cc2)on1)c1ccc(F)cc1 (stereo not given), which Potency is on record?
**A.** inconclusive [inhibitor, single point]

**Q.** With COc1ccc(CNC(=O)C2CCCN2)cc1OC (stereo not given) as the compound, how does the Potency read?
**A.** inactive

**Q.** Which Potency does the source give for Cc1ccc(/C=C2/SC(=S)N(CCCC(=O)Nc3ccc(O)cc3)C2=O)cc1 here?
**A.** inconclusive [inhibitor, single point]

**Q.** Which Potency does the source give for O=C(NC(=S)NCCOCc1ccc(Cl)cc1)c1cccnc1 here?
**A.** inactive

**Q.** Which Potency does the source give for Cc1cccc(NC(=O)c2oc3ccccc3c2NC(=O)c2cc(=O)c3cc(Cl)ccc3o2)c1 here?
**A.** inconclusive [inhibitor, partial curve, poor fit]

**Q.** With Cc1cc(C)n2nc(SCC(=O)NC(=O)NCc3ccco3)nc2n1 as the compound, how does the Potency read?
**A.** inconclusive [inhibitor, single point]

**Q.** Which Potency does the source give for COc1ccc(Cn2c(C)c(C)c(C#N)c2NC(=O)Nc2cccc(C)c2)cc1 here?
**A.** inconclusive [inhibitor, single point]

**Q.** Which Potency does the source give for Cc1cc(C(=O)NP(=O)(N2CC(C)OC(C)C2)N2CC(C)OC(C)C2)c(C)n1C1CC1 (stereo not given) here?
**A.** inactive

**Q.** With Cc1nnc(SCC(=O)c2ccc(Br)cc2)s1 as the compound, how does the Potency read?
**A.** inactive

**Q.** With CCn1cc(CNC(=O)c2ccc(Cl)c([N+](=O)[O-])c2)c(C)n1 as the compound, how does the Potency read?
**A.** inconclusive [inhibitor, single point]

**Q.** For COc1ccccc1Cn1c(CCCO)nc2ccccc21, which Potency is on record?
**A.** inconclusive [inhibitor, single point]

**Q.** With COc1ccccc1C(=O)Nc1c(C(=O)N(C)c2ccccc2)sc2nc(C)cc(C)c12 as the compound, how does the Potency read?
**A.** inconclusive [inhibitor, single point]

**Q.** Which Potency does the source give for Cc1cccc(/C=C/c2onc(C)c2[N+](=O)[O-])n1 here?
**A.** active: 2.59 µM

**Q.** For COc1ccc(CCNC(=O)CCCn2c(=O)c3cccn3c3cccnc32)c(OC)c1OC, which activity change, negative = growth inhibition is on record?
**A.** inconclusive: -33.4% [inhibitor]

**Q.** Which Potency does the source give for C/C(=N\NC(=O)c1ccccc1C)c1ccc(NC(=O)c2cccs2)cc1 here?
**A.** inconclusive [inhibitor, partial curve]

**Q.** With Cc1noc(C)c1CSCC(=O)Nc1cc(C(F)(F)F)ccc1N1CCOCC1 as the compound, how does the Potency read?
**A.** inactive

**Q.** With COc1cc(C2C3=C(COC3=O)OC(C)(C)Oc3cc4c(cc32)OCO4)cc(OC)c1OC (stereo not given) as the compound, how does the Potency read?
**A.** active: 1.03 µM

**Q.** Which Potency does the source give for CCCCOc1c(Cl)cc(CNC(C)(C)CO)cc1OCC here?
**A.** inconclusive [inhibitor, single point]

**Q.** Which Potency does the source give for C=CCn1c(C)cc(C(=O)COC(=O)[C@@H](NC(=O)c2ccccc2Cl)C(C)C)c1C here?
**A.** inconclusive [inhibitor, single point]

**Q.** With CCOC(=O)C1C(C(=O)Nc2cccc(C(F)(F)F)c2)C1C(=O)NC(C)C (stereo not given) as the compound, how does the Potency read?
**A.** inactive

**Q.** Which Potency does the source give for CC(C)(C)N(Cc1ccccc1)C(=O)COC(=O)c1ccc(N2CCCC2=O)cc1 here?
**A.** inconclusive [inhibitor, single point]

**Q.** For COc1ccc2c(c1)[nH]c1c(N3CCSCC3)ncnc12, which Potency is on record?
**A.** active: 7.31 µM

**Q.** Which Potency does the source give for CCOC(=O)c1ccc(-c2c(-c3ccccc3OC)sc3ccc(OC)cc23)cc1F here?
**A.** inconclusive [inhibitor, single point]

**Q.** Which Potency does the source give for CCOC(=O)NC(=S)Nc1ccc(C(C)(C)C)cc1 here?
**A.** inconclusive [inhibitor, single point]

**Q.** With Cc1ccc(-c2nc3ccc(Cl)cn3c2Cc2ccsc2)cc1 as the compound, how does the Potency read?
**A.** inconclusive [inhibitor, partial curve]

**Q.** With OCc1ccc(O)c2ncccc12 as the compound, how does the Potency read?
**A.** active: 5.17 µM

**Q.** With CN(C)C(=O)CCc1ccc2c3c([nH]c2c1)[C@]1(C)[C@@H](C(=O)N2CCCCC2)C[C@H](CC(=O)NCc2cccc(C(F)(F)F)c2)C(=O)N1CC3 as the compound, how does the Potency read?
**A.** active: 20.6 µM

**Q.** With Cc1nc(C(F)(F)F)nc(Nc2ccc(Br)cc2)c1C#N as the compound, how does the Potency read?
**A.** inactive

**Q.** Which Potency does the source give for N#CCSc1ccc(-c2nc3ccccc3[nH]2)cn1 here?
**A.** inconclusive [inhibitor, single point]

**Q.** With COc1ccc(N2CCCC2)c(NC(=O)c2ccc([N+](=O)[O-])o2)c1 as the compound, how does the Potency read?
**A.** active: 7.31 µM

**Q.** Which Potency does the source give for COc1ccc(NS(=O)(=O)c2ccc(Cl)c(NC(=O)c3cccnc3Cl)c2)cc1 here?
**A.** inconclusive [inhibitor, single point]

**Q.** With CCN(CC)C(=O)C1=C(C)N(Cc2ccc(OC)cc2)C(=O)C(CC(=O)NCCc2ccccn2)C1 (stereo not given) as the compound, how does the Potency read?
**A.** inactive

**Q.** Which Potency does the source give for CS(=O)(=O)Cc1ccc(C(=O)NC2CCCc3ccccc32)cc1 (stereo not given) here?
**A.** inactive
